The whole screen tested about 220,000 compounds, of which about 5,700 (2.6%) were called active. This list was built around the results that the source calls inconclusive (neither active nor inactive); the mix of calls is not that of the screen. The call rests on the fitted dose curve; in most records, active means well fitted inhibition curve with a large enough effect; inconclusive means small, poorly fitted or top-dose-only effect; inactive means no such curve, though single readings can be large or run the other way. Where the call is inconclusive, the potency comes from a doubtful curve fit.
The compounds below were run against Lysine-specific demethylase 5B (Homo sapiens) (UniProt Q9UGL1) (assay: Primary screen for KDM5B Histone Demethylases FDH-coupled qHTS). Conditions: FDH-coupled NADH fluorescence (FDH is formaldehyde dehydrogenase); series mostly up to 57.7 µM.
Sequence of UniProt Q9UGL1 (Q9UGL1 whole entry, looked up): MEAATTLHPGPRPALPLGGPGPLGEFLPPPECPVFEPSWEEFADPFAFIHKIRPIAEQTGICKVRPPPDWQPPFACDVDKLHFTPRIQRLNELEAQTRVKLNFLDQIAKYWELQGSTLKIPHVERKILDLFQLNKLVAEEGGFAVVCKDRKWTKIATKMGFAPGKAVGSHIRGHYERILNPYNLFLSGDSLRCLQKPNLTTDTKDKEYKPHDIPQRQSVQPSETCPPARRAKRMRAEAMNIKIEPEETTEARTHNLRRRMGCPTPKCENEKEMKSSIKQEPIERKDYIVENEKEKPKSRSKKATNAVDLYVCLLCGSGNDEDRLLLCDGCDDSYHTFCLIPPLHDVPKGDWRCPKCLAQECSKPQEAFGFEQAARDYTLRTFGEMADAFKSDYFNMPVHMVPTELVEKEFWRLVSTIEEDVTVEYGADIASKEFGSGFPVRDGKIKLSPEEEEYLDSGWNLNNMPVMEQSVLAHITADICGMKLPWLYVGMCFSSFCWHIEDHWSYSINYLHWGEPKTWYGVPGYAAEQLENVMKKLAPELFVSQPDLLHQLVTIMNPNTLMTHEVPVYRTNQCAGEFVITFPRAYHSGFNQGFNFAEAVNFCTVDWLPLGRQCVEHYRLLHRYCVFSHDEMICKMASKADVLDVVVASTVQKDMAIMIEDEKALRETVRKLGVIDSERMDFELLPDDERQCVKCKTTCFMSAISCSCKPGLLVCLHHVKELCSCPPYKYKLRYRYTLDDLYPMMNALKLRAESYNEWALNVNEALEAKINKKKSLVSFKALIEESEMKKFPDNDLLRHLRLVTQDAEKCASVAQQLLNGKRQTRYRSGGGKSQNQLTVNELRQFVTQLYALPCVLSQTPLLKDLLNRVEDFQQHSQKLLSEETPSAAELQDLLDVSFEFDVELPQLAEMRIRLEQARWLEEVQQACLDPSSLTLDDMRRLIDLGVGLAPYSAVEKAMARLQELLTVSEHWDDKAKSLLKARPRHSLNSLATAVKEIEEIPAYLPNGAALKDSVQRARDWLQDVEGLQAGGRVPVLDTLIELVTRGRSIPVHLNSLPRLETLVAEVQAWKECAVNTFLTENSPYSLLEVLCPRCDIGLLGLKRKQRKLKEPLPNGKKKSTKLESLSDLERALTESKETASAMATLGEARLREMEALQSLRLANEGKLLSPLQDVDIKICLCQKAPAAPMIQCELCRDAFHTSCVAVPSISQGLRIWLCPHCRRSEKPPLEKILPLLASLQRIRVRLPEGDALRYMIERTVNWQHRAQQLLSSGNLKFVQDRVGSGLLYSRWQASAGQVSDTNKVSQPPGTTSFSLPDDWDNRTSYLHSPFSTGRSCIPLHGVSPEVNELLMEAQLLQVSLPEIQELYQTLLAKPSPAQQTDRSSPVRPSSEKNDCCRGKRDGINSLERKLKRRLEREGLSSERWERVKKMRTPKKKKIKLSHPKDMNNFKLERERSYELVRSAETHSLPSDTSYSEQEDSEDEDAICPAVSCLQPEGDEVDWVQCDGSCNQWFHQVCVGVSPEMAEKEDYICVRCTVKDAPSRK
How it was run: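 Compound dilutions met 200 nM (final) KDM5BΔAP for 10 min at room temperature before substrate addition. The substrate mix held 12.5 µM H3K4me3 with cofactors 25 µM α-ketoglutarate and 50 µM Fe²⁺. NADH signal gain over 30 min defined activity.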
Further: nearly all actives have a fitted effect of over 70% in size.
Potency means the concentration at half of the fitted maximal effect; tags describe the fitted curve by direction and shape.

| Structure (SMILES) | Potency |
| --- | --- |
| CCOc1ccc(CCNC(=O)c2cccc(-n3c(C)nc4cccnc43)c2)cc1 | inconclusive: 0.562 µM [inhibitor, full curve, poor fit] |
| CN(C)c1ccc(C(=O)N2CCN3C(=O)N(CC(N)=O)C(=O)[C@@H]3C2)cc1 | inactive |
| OCC1(CCCc2ccccc2)CCN(Cc2ccc(-n3cccn3)cc2)CC1 | inconclusive: 20 µM [inhibitor, partial curve, poor fit] |
| CC(=O)c1ccc(-c2ccccc2OC(F)(F)F)o1 | inconclusive: 39.8 µM [inhibitor, single point] |
| O=C(Nc1ccccc1F)c1ccc(-c2ccccc2)s1 | inconclusive: 31.6 µM [inhibitor, partial curve, poor fit] |
| CCN1CCN(C(c2ccccc2)c2c(O)cc(C)n(Cc3ccco3)c2=O)CC1 (centres undefined) | inconclusive: 28.2 µM [inhibitor, partial curve, poor fit] |
| COc1ccc(CNC(=O)C2CCN(S(=O)(=O)c3ccc(C)cc3)CC2)cc1 | inactive |
| Cc1ccc(CN2CCCC3(Cc4ccccc4CNC3=O)C2)cc1 (centres undefined) | inactive |
| CN(C)CCNC(=O)c1cccnc1N1CC2CC(C1)[C@H]1CCCC(=O)N1C2 (some centres undefined) | inconclusive: 35.5 µM [inhibitor, partial curve, poor fit] |
| O=C(NCCN1CCOCC1)c1ccc2c(c1)N(Cc1ccc(Cl)cc1)CCS2 | inconclusive: 25.1 µM [inhibitor, partial curve, poor fit] |
| CCOc1ccc2nc(COc3ccc(C)cc3)[nH]c2c1 | inactive |
| CCC1CCCCN1CCCNC(=O)c1cc2c(=O)n(CC)c3ccccc3c2s1 (centres undefined) | inconclusive: 3.98 µM [inhibitor, partial curve, poor fit] |
| O=C(O)c1cnc(Cl)c(Cl)c1 | inactive |
| O=C(c1cccnc1)N1CCC2(CC1)COc1ccccc1NC2=O | inactive |
| O=C(c1ccccc1)c1ccccc1NC(=O)c1cc2ccccc2oc1=O | inactive |
| Cc1ccccc1NC(=O)c1ccc(F)c(S(=O)(=O)N(C)C2CCCCC2)c1 | inconclusive: 2.24 µM [inhibitor, partial curve, poor fit] |
| Cc1noc(C)c1Cc1ccc(C(=O)N2CCc3c(nc4cc(-c5ccccc5)[nH]n4c3=O)C2)o1 | inconclusive: 31.6 µM [inhibitor, partial curve, poor fit] |
| COc1ccc(NC(=O)c2sc3nc4c(cc3c2N)CCCCCC4)cc1OC | inconclusive: 31.6 µM [inhibitor, single point] |
| O=C(CCn1c(=O)c2cccn2c2ccccc21)Nc1ccc(F)cc1 | inconclusive: 50.1 µM [inhibitor, single point] |
| CCN1c2cc(C(=O)Nc3ccc(OC)cc3)ccc2C(=O)N2CCCCCC21 (centres undefined) | inconclusive: 22.4 µM [inhibitor, partial curve, poor fit] |
| O=C1C2=C(Nc3ccccc3SC2c2ccccc2C(F)(F)F)c2ccccc21 (centres undefined) | inconclusive: 14.1 µM [inhibitor, partial curve, poor fit] |
| O=C(NCc1cccs1)c1ccc(CSc2nc3cccnc3n2Cc2ccccc2)cc1 | inconclusive: 35.5 µM [inhibitor, partial curve, poor fit] |

| Structure (SMILES) | Potency |
| --- | --- |
| O=C1NC2(CCN(S(=O)(=O)c3ccccc3)CC2)N=C1c1cccs1 | inactive |
| CCOc1ccccc1NC(=O)C1CCN(S(=O)(=O)c2ccc3[nH]c4c(c3c2)CCCCC4)CC1 | inconclusive: 25.1 µM [inhibitor, partial curve, poor fit] |
| COc1ccc(NC(=O)C2(C)CCc3cnc(NCc4ccccc4)nc32)cn1 (centres undefined) | active: 39.8 µM |
| COc1ccc2[nH]c(C)c(C(=O)CN3CCC(C(N)=O)CC3)c2c1 | inactive |
| CCn1cnnc1-c1nn(C)c2c1CN(C(=O)c1n[nH]c3ccccc13)CC2 | inconclusive: 35.5 µM [inhibitor, partial curve, poor fit] |
| COCCNc1ncc(-c2ccc(O)cc2)c2c1OCC2 | active: 31.6 µM |
| Nc1cnc(Nc2ccc(Br)cc2)nc1N | inconclusive: 22.4 µM [inhibitor, single point] |
| CCOc1ccccc1NC(=O)CN1c2ccccc2S(=O)(=O)c2ccccc21 | inconclusive: 31.6 µM [inhibitor, partial curve, poor fit] |
| Cc1cccc(CNC(=O)c2ccc3c(c2)N(C)C(=O)C2CCCCN32)c1 (centres undefined) | inconclusive: 17.8 µM [inhibitor, partial curve, poor fit] |
| CCOc1ccc(NS(=O)(=O)c2ccc3[nH]cc(C(=O)NCc4ccccc4)c(=O)c3c2)cc1 | inconclusive: 12.6 µM [inhibitor, partial curve, poor fit] |
| Cc1cccc(CN2CCNc3cnc(OCc4cccnc4)cc3C2)c1 | active: 17.8 µM |
| CCCCC(=O)OC1=C(C(=O)c2ccccc2)N(C)S(=O)(=O)c2ccccc21 | inconclusive: 25.1 µM [inhibitor, partial curve, poor fit] |
| c1cc(N2CCOCC2)ncc1-c1noc([C@@H]2CCCN2C2CCOCC2)n1 | inconclusive: 35.5 µM [inhibitor, single point] |
| COc1ccc(-c2csc3ncnc(N4CCN(c5ccccc5OC)CC4)c23)cc1 | inconclusive: 35.5 µM [inhibitor, single point] |
| Cc1cccc(CC(=O)N2CC(c3nnc(-c4ccncc4)o3)C3(CCOCC3)C2)c1 (centres undefined) | inactive |
| COc1ccc(CN2CCN(Cc3ccncc3)CC2)c(OC)c1 | inconclusive: 31.6 µM [inhibitor, partial curve, poor fit] |
| CCCN(C(=O)Cn1nc(Cc2cccnc2)c2ccccc2c1=O)c1cccc(Cl)c1 | inactive |
| CCCCN(C(=O)c1ccc(-c2ccc(Cl)cc2)o1)c1c(N)n(CCC)c(=O)[nH]c1=O | inconclusive: 25.1 µM [inhibitor, single point] |
| Cc1ccc(C)c(NC(=O)CN2C(=O)C(c3ccccc3)=NC23CCCC3)c1 | inactive |
| COc1ccccc1CNS(=O)(=O)c1ccc(F)c(C(=O)Nc2cc(Cl)ccc2OC)c1 | inconclusive: 39.8 µM [inhibitor, single point] |
| CCN1c2cc(C(=O)NCc3ccc(OC)cc3)ccc2C(=O)N2CCCCC21 (centres undefined) | inconclusive: 25.1 µM [inhibitor, partial curve, poor fit] |
| COc1ccccc1N1CCN(S(=O)(=O)c2c(C)nc3sc(C)c(C)n3c2=O)CC1 | inconclusive: 39.8 µM [inhibitor, single point] |

| Structure (SMILES) | Potency |
| --- | --- |
| O=C(CNC(=O)c1cccnc1)N/N=C/c1ccc(O)cc1O | inconclusive: 22.4 µM [inhibitor, partial curve, poor fit] |
| N#Cc1ccc(CN2CC3(C2)NC(=O)c2ccccc2O3)cc1 | inactive |
| O=C(c1csc(-c2cccs2)n1)N1CCC2(CCCO2)CC1 | inconclusive: 17.8 µM [inhibitor, partial curve, poor fit] |
| Cc1cc2ncc(C(=O)N3CCC4(CC(=O)NC4=O)C3)c(=O)n2[nH]1 (centres undefined) | inconclusive: 28.2 µM [inhibitor, partial curve, poor fit] |
| CC1CCN(S(=O)(=O)c2ccc3nc(Nc4ccc(C#N)cc4)ccc3c2)CC1 | inconclusive: 28.2 µM [inhibitor, partial curve, poor fit] |
| N#Cc1ccc(C(=O)N2CC=C(c3c[nH]c4ccccc34)CC2)cc1 | inactive |
| Cc1noc(-c2ccn3c(CNC(=O)c4ccc5ccccc5n4)nnc3c2)n1 | active: 6.31 µM |
| O=C(Nc1cccc(-c2nc3ccccc3o2)c1)c1cccc(Br)c1 | inconclusive: 44.7 µM [inhibitor, single point] |
| CCCCC(=O)OC1=C(C(=O)c2ccccc2)N(CC)S(=O)(=O)c2ccccc21 | inconclusive: 25.1 µM [inhibitor, partial curve, poor fit] |
| CSc1ccc(CNC(=O)c2cc3cc(S(=O)(=O)N4CCCCC4)ccc3n2C)cc1 | inconclusive: 22.4 µM [inhibitor, partial curve, poor fit] |
| CCCc1cc(=O)oc2cc(OCc3cc(C(C)=O)ccc3OC)ccc12 | inconclusive: 28.2 µM [inhibitor, partial curve, poor fit] |
| CN(CCc1ccccn1)[C@@H]1[C@H](O)[C@H](CO)O[C@@H]1CN(Cc1ccc(F)cc1)Cc1ccc(F)cc1 | inconclusive: 20 µM [inhibitor, partial curve, poor fit] |
| N#Cc1cccc(NC(=O)CCCCCCCC(=O)Nc2cccc(C#N)c2)c1 | inactive |
| COc1ccc(Cn2ccc3nc(C)c(C(=O)Nc4ccc(OC(F)(F)F)cc4)cc3c2=O)cc1 | inconclusive: 15.8 µM [inhibitor, partial curve, poor fit] |
| O=C1[C@@H]2C[C@@H](CN2Cc2nccs2)Oc2ccccc2N1Cc1ccc(OC(F)(F)F)cc1 | active: 28.2 µM |
| O=C(c1cc(=O)[nH]c2ccccc12)N1CCN(Cc2ccccc2)CC1 | inconclusive: 39.8 µM [inhibitor, single point] |
| Fc1ccc(-c2nnc(COc3cccc(Cl)c3)o2)cc1 | inactive |
| COc1ccc(C(=O)CC(=O)c2ccc(F)cc2)cc1 | inconclusive: 28.2 µM [inhibitor, partial curve, poor fit] |
| Cc1cccc(-n2c3nc(=O)[nH]c(=O)c-3cc3c(C)nn(-c4ccccc4)c32)c1C | inconclusive: 2.51 µM [inhibitor, partial curve, poor fit] |
| CC(C)N1CCN(CCN2CC3(CCN(C(=O)CCN)CC3)OC2=O)CC1 | inconclusive: 17.8 µM [inhibitor, single point] |

Reference: PubChem BioAssay AID1347165 (National Center for Advancing Translational Sciences (NCATS), 2019)
